Laboratory results: the supplement of paper PMC12217912
The other results are listed elsewhere or left out. The full chains were built here from the parent and the listed change. Inactive controls read about 0.05.

B1: TEV protease; numbered along this chain (parent)
chain: MGESLFKGPRDYNPISSSICHLTNESDGHTTSLYGIGFGPFIITNKHLFRRNNGTLVVQSLHGVFKVKDTTTLQQHLVDGRDMIIIRMPKDFPPFPQKLKFREPQREERICLVTTNFQTKSMSSMVSDTSCTFPSGDGIFWKHWIQTKDGQCGSPLVSTRDGFIVGIHSASNFTNTNNYFTSVPKNFMELLTNQEAQQWVSGWRLNADSVLWGGHKVFMVKPEEPFQPVKEATQL

Variants of: B1
Assay: raw area under fraction-flipped curve 0-4 h after induction (AUC4h, not background-subtracted), DNA-recorder readout of cleavage of the substrate (dimensionless); higher = more cleavage of the substrate by the protease variant
Conditions: temperature: 34 °C; time window: 0-4 h after rhamnose induction
Method: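 In vivo DNA recorder in E. coli TOP10(DE3) ΔrhaA at 34 °C. Each TEVp single-site mutant (parent TEVp 0) is paired with a single-site variant of the 7-mer TEVs (canonical ENLYFQ|S). The substrate sits between flexible linkers in a Bxb1-sfGFP-TEVs-SsrA fusion, so cleavage stabilises Bxb1 and speeds flipping of a recombination array, read by NGS. The value is the raw area under the fraction-flipped curve over 0-4 h after rhamnose induction (AUC4h), with ≥20 reads per time point. It is not background-subtracted; inactive controls average about 0.047.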
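Note: Bxb1 expression induced with 0.2% (w/v) L-rhamnose at OD600 near 0.5, cultures sampled hourly, flipped fraction per protease–substrate barcode pair counted by paired-end Illumina sequencing.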

Variant	area with substrate ENLYFQA	area with substrate ENLYFQC	area with substrate ENLYFQF	area with substrate ENLYFQG	area with substrate ENLYFQH	area with substrate ENLYFQI	area with substrate ENLYFQK	area with substrate ENLYFQL	area with substrate ENLYFQM	area with substrate ENLYFQR	area with substrate ENLYFQS	area with substrate ENLYFQT	area with substrate ENLYFQV	area with substrate ENLYFQW	area with substrate ENLYFQY	area with substrate ENLYFQD	area with substrate ENLYFQE	area with substrate ENLYFQN	area with substrate ENLYFQP	area with substrate ENLYFQQ
V157F	0.079	0.107	0.0622	0.0924	0.0769	0.0602	0.0583	0.047	0.0791	0.0615	0.0853	0.0533	0.0607	0.0422	0.0269					
D208N	0.0821	0.0753		0.0692			0.0629	0.0573	0.0706		0.091	0.0858	0.0537	0.0466		0.0628	0.0163	0.0647		
C152M	0.0532		0.0608			0.0548	0.0665				0.0576		0.0349		0.0765			0.0598	0.0558	
C152L	0.0595	0.0568		0.0591	0.0943		0.0658	0.0623			0.0611	0.0711		0.0502	0.0462			0.0623		
C152G	0.0653	0.059		0.0545	0.0635	0.0647	0.0575	0.0534	0.0574	0.0607	0.0604	0.0553	0.0579	0.048	0.0507	0.0584		0.0624	0.0599	0.0569
C152E	0.0598	0.0626	0.0549	0.0538	0.0404	0.0442	0.0534	0.0541	0.0643	0.0673	0.0603		0.0599	0.0512			0.0588	0.0489		0.0586
C152W	0.0629	0.0436	0.032	0.0578	0.0614		0.059	0.0542	0.0588	0.0613	0.0584	0.0449	0.0639	0.0537		0.0663		0.0556	0.0673	
C152F	0.0615	0.0439	0.0516	0.0521	0.0559		0.0684	0.0531	0.0627	0.0623	0.0605	0.06	0.0391	0.0564	0.054	0.0628	0.052	0.0359		0.0191
C152I	0.0507	0.0566	0.0508	0.0496	0.0546	0.0633	0.048	0.0493	0.0653	0.0614	0.0612	0.0477	0.0449	0.0567	0.0624			0.0268	0.0635	
C152D	0.0588	0.0606	0.0452			0.0624	0.0573	0.0562	0.0533		0.0583		0.0548	0.0538				0.0571	0.069	
T192H	0.0917	0.15		0.0835	0.0881	0.0559		0.0767	0.105	0.0543	0.0998	0.083	0.0714	0.0711	0.0697			0.08	0.0683	
T192E	0.0902	0.141	0.0718	0.0745					0.0908	0.0758	0.103					0.0722			0.0617	
T192Q	0.131	0.109	0.0623	0.105			0.0383	0.0596	0.094	0.0597	0.0988	0.0658	0.0599		0.0642			0.0752		0.0822
R204H	0.102	0.106	0.0891		0.0884	0.0681	0.0646	0.0631	0.0944	0.0594	0.0992	0.0645	0.0502	0.0448	0.0837	0.0496		0.0751	0.0565	0.0733
R204K	0.105	0.12		0.0948	0.0816	0.0671	0.063	0.0596	0.0808	0.0933	0.112	0.0667		0.0711	0.07	0.0727				
D161V	0.0617	0.0601	0.057	0.0605	0.0476	0.0524	0.0454	0.0488	0.0458	0.0378	0.0567	0.0579	0.0442	0.0516	0.0582	0.058		0.0583	0.0892	0.0406
R160N	0.102	0.187	0.0888				0.0729		0.0902	0.0614	0.108							0.0784		
R160I	0.0711	0.113		0.109		0.0469	0.0618	0.0634	0.0891	0.0591	0.0943	0.0754	0.0542	0.0548	0.0746	0.0595		0.0753	0.0653	0.0896
R160V	0.0922		0.0777	0.146	0.0799	0.0539		0.0598	0.0948	0.0603	0.103	0.0524		0.073	0.0541	0.0773	0.0385	0.0747	0.0531	0.0745
R160D	0.102	0.125	0.0746	0.09		0.067	0.0598	0.0718	0.0968	0.0622	0.108	0.0633	0.0622	0.0627	0.0758			0.0901	0.0569	
V200P	0.071		0.0624	0.0645			0.0459				0.0631				0.059	0.0557		0.072		
V200H	0.064	0.0687	0.0426	0.0787		0.0607	0.0664	0.0485	0.069	0.0589	0.0734	0.0603	0.0699	0.0527	0.0651	0.0446		0.0812	0.0422	
V200T	0.0351	0.117			0.0741	0.0581			0.0796		0.0938	0.0836		0.0663						
K216H	0.102	0.102		0.101	0.0759			0.0749	0.0945	0.0737	0.0994	0.0658	0.0663			0.0838		0.0762		
I164A	0.0739	0.0698			0.0727	0.066	0.0539	0.0527	0.0542	0.0556	0.0634	0.0668		0.0486	0.0571			0.057	0.0549	0.039
